Each structure is given as a SMILES string. In all, about 150,000 compounds went through this assay and about 540 (0.36%) showed an effect of 50% or more. This is one part of the list.

Here are results for 55 compounds from ChEMBL document CHEMBL4888484, “Replenishing the malaria drug discovery pipeline: Screening and hit evaluation of the MMV Hit Generation Library 1 (HGL1) against asexual blood stage Plasmodium falciparum ,using a nano luciferase reporter read-out” (2022).

The test system of this assay is Plasmodium falciparum. The assay is described as follows: Primary screen in NF54 nanoGlo assay, in single point, at 2uM, 72h; a lower Z score goes with more inhibition. Format: functional, Erythrocyte. The note with it: timepoint 72 hour.
As to `CN(CC(=O)N1CC(OCc2ccccc2F)C1)Cc1ccccn1`, the “% Inhibition” value is recorded as -7% and the Z score is given as 1.01.
For the compound `CCn1ccnc1CN1CC(F)(F)C(F)(F)C1`, the “% Inhibition” value was -3% and the Z score turned out to be 0.59.
In the same order, the values of `CN(C)c1ncc(CN2CCS(=O)(=O)C(C)(C)C2)cn1` are -11% and 1.87.
On to `COCCN1CCC[C@H](C(=O)N2CCCCCC2)C1`, for which the “% Inhibition” value is given as -1% and the Z score was 0.11.
Consider `COCCCNC(=O)/C(=C/c1cn(-c2ccccc2)nc1-c1ccc(Cl)cc1)NC(=O)c1ccc(Cl)cc1Cl`, for which the “% Inhibition” value is on record as 1% and the Z score is -0.12.
In the same order, the values of `Cc1ccc(C2=Nc3ccc(S(=O)(=O)N4CCOCC4)cc3S(=O)(=O)N2)cc1` are -6% and 0.98.
Taken in the same sequence, the figures for `C=C(C)CC(C)C(=O)N1CC2(C)CN(C)CC2(C)C1` (stereo not given) were 10% and -1.32.
Taken in the same sequence, the figures for `O=C(NCc1ccc(F)c(Cl)c1)N1CCn2c1nc1ccccc12` were 7% and -1.02.
On to `O=C1[C@@H]2CCCCN2C(=O)N1Cc1ccon1`, for which the “% Inhibition” value is reported as -3% and the Z score came to 0.48.
As to `CC(=O)N[C@@H](C)CC(=O)NCCC1(O)CCCC1`, the “% Inhibition” value was -3% and the Z score was 0.53.
Taken in the same sequence, the figures for `N#Cc1ccc(OS(=O)(=O)c2cccs2)cc1` were -10% and 1.66.
Taken in the same sequence, the figures for `O=C(O)[C@@H]1CN(C(=O)C2CC=CCC2)C[C@@H]1c1ccccc1` (stereo not given in full) were -6% and 1.1.
Take `Cc1ccc(CN2CCN(Cc3ccc(=O)n(C)c3)CC2)cc1`: the “% Inhibition” value is listed as -6% and the Z score was found to be 0.8.
Consider `COc1ccccc1CC(=O)N1CCc2[nH]nc(C(=O)N3CCN(c4ccccc4C)CC3)c2C1`, for which the “% Inhibition” value is -5% and the Z score was found to be 0.68.
Taken in the same sequence, the figures for `COc1ccc(CN2CCC(N(c3ccccc3)S(=O)(=O)c3ccc(C)cc3)CC2)cc1` were -9% and 1.02.
Taken in the same sequence, the figures for `Cc1ccc(-c2n[nH]cc2CN2C[C@@H](CO)[C@H](c3ccncc3)C2)cc1` were 0% and -0.05.
Taken in the same sequence, the figures for `COc1ccc(C(=O)NCN2CCN(c3ccc(F)cc3)CC2)cc1OC` were 36% and -4.61.
For the compound `CC(C)c1cc(C(=O)N2CC[C@@]3(CCCN(CC4CCC4)C3=O)C2)on1`, the “% Inhibition” value is 5% and the Z score was -0.98.
Take `CC(C)NC(=O)Nc1ccc(N(C)C)c(CN(C(=O)CC(C)(C)C)C(C)C)c1`: the “% Inhibition” value is given as -10% and the Z score stood at 0.97.
In the same order, the values of `Cc1nc(C)c(CNC[C@H]2COc3ccccc32)s1` are -2% and 0.28.
As to `C[C@@H](CN1CCCC1=O)NC(=O)c1cc(F)c(O)c(Cl)c1`, the “% Inhibition” value is -17% and the Z score is 2.8.
In the same order, the values of `O=C(Nc1ccc(N2CCCCC2)cc1)c1cccc2ccccc12` are -32% and 3.79.
Taken in the same sequence, the figures for `O=C(NCCc1cccc(-c2ccccc2)c1)[C@@H]1CCCCN1` were 0% and 0.07.
Regarding `Cc1cnn(C[C@H](C)NCC(=O)NCc2ccc3c(c2)OCO3)c1`, the “% Inhibition” value amounted to 3% and the Z score is -0.48.
Taken in the same sequence, the figures for `CC1CC(N2CCc3cncnc3C2)C(=O)O1` (stereo not given) were -14% and 2.01.
In the same order, the values of `CC(C)C[C@@H]1NC(=O)N(c2ccc3oc(-c4ccncc4)nc3c2)C1=O` are -19% and 3.69.
In the same order, the values of `COc1ncnc(OC)c1C(=O)N(C)CCc1ccc(Cl)cc1` are -12% and 2.17.
In the case of `CC(C)CO[C@H]1CCN(C(=O)Nc2ccncc2F)C1`, the “% Inhibition” value is -4% and the Z score worked out at 0.56.
In the case of `Cc1csc(C2(NC[C@H]3CN(C)C(=O)O3)CCOCC2)n1`, the “% Inhibition” value is recorded as -4% and the Z score was determined as 0.63.
In the same order, the values of `CN(Cc1ncnn1C)c1nc2ccccc2nc1N1CCOCC1` are -1% and 0.21.
Taken in the same sequence, the figures for `Cn1cc2c(n1)CCCC2NC(CCO)c1ccco1` (stereo not given) were 2% and -0.2.
In the same order, the values of `CCCC(C)c1cc(NC(=O)C2CCCO2)[nH]n1` (stereo not given) are 2% and -0.14.
With `CCC1(CC)CN(C(=O)c2cn[nH]c(=O)c2)c2ccccc21`, the “% Inhibition” value amounted to 0% and the Z score is listed as -0.01.
Taken in the same sequence, the figures for `COc1ccc([C@H]2CC(=O)Nc3nc(N4CCCCC4)sc32)cc1OC(C)C` were -23% and 2.95.
For the compound `CCOC(=O)C(=NO)Nc1ccccc1`, the “% Inhibition” value amounted to 2% and the Z score is -0.34.
Taken in the same sequence, the figures for `O=C(NC1CC(O)C(CO)C1)c1cc(C2CC2)on1` (stereo not given) were -7% and 1.06.
Regarding `CCC(NC(=O)NCC(O)c1ccsc1)c1ccccc1OC` (stereo not given), the “% Inhibition” value is on record as 3% and the Z score is -0.35.
In the same order, the values of `CC(C)Cc1nnc(C[C@H]2CCN(C(=O)C3CCOCC3)C2)o1` are -2% and 0.32.
As to `O=C(CCCn1cncn1)N1CCC(C(=O)N2CCCC2)CC1`, the “% Inhibition” value is -2% and the Z score worked out at 0.25.
Taken in the same sequence, the figures for `C[C@@H]1CN(Cc2cc(O)c3cccc(Cl)c3n2)C[C@H](C)O1` were 16% and -2.03.
For `COc1ccc(CCNC(=O)c2c(O)c3cccc4c3n(c2=O)CC4)cc1OC`, the “% Inhibition” value is -13% and the Z score is reported as 1.13.
Taken in the same sequence, the figures for `Cc1cc(C)c2c(C(=O)NCc3nc(-c4cnccn4)n[nH]3)cc(C)nc2c1` were -3% and 0.39.
On to `CCc1ccc(CC)c(NC(=O)NC(C)(C)CCS(C)(=O)=O)c1`, for which the “% Inhibition” value was -4% and the Z score was determined as 0.39.
As for `CC(=O)Nc1ccc(C2OC(=O)N(Cc3ccc(C)cc3)C2C(=O)NCc2ccccn2)cc1` (stereo not given), the “% Inhibition” value turned out to be 1% and the Z score is given as -0.09.
In the same order, the values of `N#Cc1ccc(NCc2cc3n(n2)CCN(C2CCCCC2)C3)nc1` are 0% and 0.06.
`C1CCC(NC2=NCCCNC23CCCCC3)CC1`: the “% Inhibition” value was -9% and the Z score is recorded as 1.55.
For the compound `c1ccc(-c2cc(-c3ccccn3)nc3ccc4ccccc4c23)cc1`, the “% Inhibition” value is -21% and the Z score was 2.78.
As for `CS(=O)(=O)N1C[C@H]2CC[C@@H](C1)N(C(=O)c1ncc(F)cc1F)C2`, the “% Inhibition” value is listed as -3% and the Z score amounted to 0.51.
In the same order, the values of `COC(=O)CCN(C(=O)[C@H]1CCCC12OCCO2)C(C)C` are 1% and -0.11.
With `CCN(CC(=O)Nc1c(F)cccc1F)CC(=O)N1c2ccccc2NC(=O)C[C@@H]1C`, the “% Inhibition” value is recorded as -8% and the Z score is on record as 1.08.
In the same order, the values of `CCOc1ccc(NC2=C(C(N)=O)S(=O)(=O)c3ccccc32)cc1` are -5% and 0.51.
For `N#Cc1ccc(C(=O)N2CCN3CCS(=O)(=O)N(C4CC4)C(=O)[C@@H]3C2)cc1`, the “% Inhibition” value is recorded as -6% and the Z score is 0.79.
Taken in the same sequence, the figures for `Cn1nc(CN(C(=O)c2cccnc2)C2CCCC2)c2c1CCC2` were -6% and 1.17.
Taken in the same sequence, the figures for `CCCOCC(=O)Nc1cc(C(=O)O)c(Br)cc1C` were -10% and 1.19.
In the same order, the values of `O=C1[C@@H]2CCCN2C(=O)N1Cc1cc(-c2ccc(Cl)cc2)no1` are 30% and -3.42.
